Results from the RNAGym collection of RNA variant scans (doi:10.7554/elife.90254).
Read counts are not given, so values of variants with three or more changes are uncertain.

B1: LINE1-mini (parent)
chain: GGCAGAGCUCAACACAGCGUGGCAAAGUGGCUGUGGCUAGACUGCC

Variants of: B1
Test: self-cleavage, relative activity (ratio to wild type); higher = more cleavage; in vitro, sequencing; the parent is a self-cleaving ribozyme

Row | Variant | self-cleavage
1 | GGGAGUGCUCAACACAGUGUGGCAAAGUGGCUGUGGCUAGACUGCC | 0.06
2 | GGGAGUGCUCAACACAGCGUGGCAAAGUGGAUUUGGCUAGACUGCC | 0.05
3 | GGGAGAGCUCGACACAGCGUGGCAAUGUGGCUGUGGCUAGACUGCC | 0.01
4 | GGGAGAGCUCGACACAGCGUGACAAAGUGGCUUUGGCUAGACUGCC | 0.03
5 | GGGAGAGCUCUACACAGCGUGGCAACGUGCCUGUGGCUAGACUGCC | 0.03
6 | GGGAGAGCUCUAAACAGCGUGGCAAAGUGGCGGUGGCUAGACUGCC | 0.05
7 | GGGAGAGCUCUACACAGCUUGGCAAAGUGGCUGUGGCUAGACUGCC | 0.03
8 | GGGAGAGCUCUACACAGCGCGACAAAGAGGCUGCGGCUAGACUGCC | 0.02
9 | GGGAGAGCUCACCACAGCGUGGCAAAGUGGCUGUGGCUAGCCUGCC | 0.04
10 | GGGAGAGCUCACCACAUCGUGGCACAGUGGCUGUGGCUAGAUUGCC | 0.06
11 | GGGAGAGCUCAGCACCGCGUGGGAAAGUGUCUGUGGAUAGACUGCC | 0.02
12 | GGGAGAGCUCAUCGCAGCGUGGCAAAGUCGCUGUGGCUAGACUGCC | 0.06
13 | GGGAGAGCUCAUCACAUCGUGGCAAAGUGGUUGUGGCUAGACUGCC | 0.12
14 | GGGAGAGCUCAUCACAGCGCGACAAAGUUGCUGUGGCUAGACUGCC | 0.06
15 | GGGAGAGCUCAACCCAGCCUGGCAAAGUGGCUAUGGCUAGACUGGC | 0.01
16 | GGGAGAGCUCAACCCAGCUUGGCAAAGUGGCUGUGGCUAGACUGCC | 0.01
17 | GGGAGAGCUCAACGCAGCGUGGCAAAGUGGCUGUGGCUAGACUGCA | 0.08
18 | GGGAGAGCUCAACGCAGCGUAGCAGAGUGGCUGUGGCUAGACUGCC | 0.69
19 | GGGAGAGCUCAACGCAGCGUGGCAAAGUUGCUGUGGCUAGACUGCC | 2.02

Row | Variant | self-cleavage
20 | GGGAGAGCUCAACGCAGCGUGGCAAAGUGGCUGUGGCCAGACUGCC | 0.14
21 | GGGAGAGCUCAACUAAGCGUGGCCAAGUGGCUGUGGCUAGACUGCA | 0.07
22 | GGGAGAGCUCAACUGAGCGUGGCAAAGUGACUGGGGAUAGACUGCC | 0.05
23 | GGGAGAGCUCAACACCCCGUGGUAAAGUGGCUGUGGCUAAACUGCC | 0.11
24 | GGGAGAGCUCAACACUUCGUGGCAAAGUGGCUGUGGGUAGAAUGCC | 0.06
25 | GGGAGAGCUCAACACUGCGUUGCAAAGUGGCUGUGUCUAGACUGCC | 0.14
26 | GGGAGAGCUCAACACUGCGUGGCAAAGUGGCUGUGGCUACUCUGCC | 0.02
27 | GGGAGAGCUCAACACAGCGUGGCGCAGUCGCUCUGGCUAGACUGCC | 0.29
28 | GGGAGAGCUCAACACAGCGUGGCUAAGUGGUUGUGGCUAGACUGCC | 0.04
29 | GGGAGAGCUCAACACAGCGUGGCACGGGGGCUGUGGCUAGACUGCC | 0.03
30 | GGGAGAGCUCAACACAGCGUGGCACAGUGGCUGUGGCUUGACUGCC | 0.07
31 | GGGAGAGCUCAACACAGCGUGGCACAAGGGCUGUAGCUAGACCCCG | 0.01
32 | GGGAGAGCUCAACACAGCGUGGCACACUGGCUGUGGCUAGACUCCC | 0.52
33 | GGGAGAGCUCAACACAGCGUGGCAGAGUGGCUGUCGCUGGACUGCC | 0.02
34 | GGGAGAGCUCAACACAGCGUGGCAACGUUGCUGUGGCUAGUCUGCU | 0.32
35 | GGGAGAGCUCAACACAGCGUGGCAACGUGGCUAUGGCUAGACUGCC | 0.1
36 | GGGAGAGCUCAACACAGCGUGGCAACGUGGCUGUGGCUAGACUUCC | 0.52
37 | GGGAGAGCUCAACACAGCGUGGCAAGGUGGCUGUGGCUAGCCUGCC | 0.26
38 | GGGAGAGCUCAACACAGCGUGGCAAGGUGGCUGUGGCUAGUCUGCA | 0.17

Row | Variant | self-cleavage
39 | GGGAGAGCUCAACACAGCGUGGCAAGGUGGCUGUGGCUAGAAUGCC | 0.16
40 | GGGAGAGCUCAACACAGCGUGGCAAGGUGACUGUGGCUAGACUGCC | 0.64
41 | GGGAGAGCUCAACACAGCGUGGCAAUGUGGCUGUGUCUAGACUGCC | 0.31
42 | GGGAGAGCUCAACACAGCGUGGCAAUGUGGCUGUGGCUACACUGCC | 0.06
43 | GGGAGAGCUCAACACAGCGUGGCAAAGUGGCUGUGGCUGGACAGCC | 0.07
44 | GGGAGAGAUCAACGCAGCGUGGCAAAGUGGCUGUGGCUAGACUGCC | 0.51
45 | GGGAGAGAUAAACACAGCGUGACAAAGUGGCUGUGGCUAGACUGCC | 0.05
46 | GGGAGAGAUCAAGACAGCGUGGCAAUGUGGUUGUGGCUAGAAUGCC | 0.26
47 | GGGAGAGAUCAAUACAGCGUGGCAAAGUGGGUCUGGAUAGACUGCC | 0.51
48 | GGGAGAGAUCAACAAAGCGUGGCAAAGUGGUUGUGGGUAGACUGCC | 0.3
49 | GGGAGAGAUCAACACAGCGUGGGAAAGUGGCUGUGGCUAGACUGCC | 0.08
50 | GGGAGAGAUCAACACAGCGUGGCAAAGUGGCUGUGGCUAGAAUGCC | 0.03
51 | GGGAGAGGUCAACGCAGCGUGGCGAUGUGGCUGUGGCUAGACUGCC | 0.28
52 | GGGAGAGGUAAACACAGCGUGGCAAAGUGGCUGUGGCUAGACUGAC | 0.02
53 | GGGAGAGGUCAAUAGAGCGUGGCAAAGAGGCUGUGGCUAGACUGCC | 0.04
54 | GGGAGAGGUCAACACAGCGUGGGAAAGUGGCUGUGGCUAGACUGCC | 0.17
55 | GGGAGAGGUCAACACAGCCUGGCAAAGGCGCUGUGGCUAGACUGCG | 0.01
56 | GGGAGAGGCCACCACAGCGUGGCAGAUUGGCUGUGGCUAGACUGCU | 0.01
